In article PMC7819943, “Rice protein-binding microarrays: a tool to detect cis-acting elements near promoter regions in rice”:
Some of the results follow.

Molecular target: T1, OsWOX13 (Oryza sativa, UniProt Q5QMM3 1-267)
T1 sequence: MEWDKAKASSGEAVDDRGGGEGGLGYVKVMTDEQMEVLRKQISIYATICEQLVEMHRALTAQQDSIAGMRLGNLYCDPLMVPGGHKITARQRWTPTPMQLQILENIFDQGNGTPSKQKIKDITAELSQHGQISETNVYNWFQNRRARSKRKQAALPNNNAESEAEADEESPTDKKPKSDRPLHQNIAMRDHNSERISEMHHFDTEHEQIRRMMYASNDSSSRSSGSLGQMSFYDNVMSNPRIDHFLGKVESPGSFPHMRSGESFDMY
Experiment: protein-binding microarray (RPBM); PBS, 2% BSA, 51.3 ng/ul salmon testes DNA, 50 uM zinc acetate, 200 nM TF, 25 C, 1 h; high values mean tight binding
Conditions: protein: recombinant; tags: N-terminal polyhistidine and DsRed monomer fusion (pET32a); label: CyDye5-dUTP incorporated in the synthesized complementary strand; 3' TTTTT single-stranded linker to array surface; dsDNA, one strand shown
In short: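 A custom Agilent array was converted to double-stranded form by primer extension with Cy5-dUTP and blocked with 2% BSA. Protein at 200 nM in PBS with 2% BSA, salmon testes DNA and 50 µM zinc acetate was applied for 1 h at 25 °C, followed by washing. The proteins were polyhistidine–DsRed N-terminal fusions of transcription factors, expressed in E. coli BL21-CodonPlus and Ni–NTA-purified. The binding signal is per-feature fluorescence intensity (arbitrary units) from an Axon 4000B scanner.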

Sequence	binding signal
CTGCACTAATTATTTAGTCTCATTAGTTTTATAAAATGCACGGAGTCACCTAGTGCAG	25100 fluorescence intensity (a.u.)
GGTGACCGATGATTTTGTAAATCTCAACATATGCTGGTGTCGGAGTCACCTAGTGCAG	7180 fluorescence intensity (a.u.)
AATTGAATTTCGAAATTGAAAACCCTGGCCGGGTAGCGTACGGAGTCACCTAGTGCAG	3830 fluorescence intensity (a.u.)
CAGTGATGGAGATTTGTGATATTTCGGTGTTGGTAAGCTGCGGAGTCACCTAGTGCAG	26200 fluorescence intensity (a.u.)
TAAATTATAATGGTGTAAATTAAAACAAAAGACACATGTGCGGAGTCACCTAGTGCAG	13600 fluorescence intensity (a.u.)
TCTTGGAGTTGATTATATAAATAAATCGAACGAGCACGAGCGGAGTCACCTAGTGCAG	11200 fluorescence intensity (a.u.)
AGCTGCCAATTAAGCTGTGTGTGATGGGTAGCTAACATATCGGAGTCACCTAGTGCAG	9800 fluorescence intensity (a.u.)
CAAATTGGAACAAACCAATCCCAAGGACATCATCTTCTCGCGGAGTCACCTAGTGCAG	8830 fluorescence intensity (a.u.)
AAATATTAAACGTAGATTAATAACAAAATAAATTATAGATCGGAGTCACCTAGTGCAG	4780 fluorescence intensity (a.u.)
TCCTGTTAATTAGACATTTTAGGCGTTAAGTAAGCAGAGGCGGAGTCACCTAGTGCAG	39200 fluorescence intensity (a.u.)
TCCCATTTGTTATCTGATGATTTGTAAAACATAGGCACTTCGGAGTCACCTAGTGCAG	10700 fluorescence intensity (a.u.)
AGGGTATTGCAGCTCTAATTAATTACTCAAGTGTGTGTGCCGGAGTCACCTAGTGCAG	3500 fluorescence intensity (a.u.)
GAGATGATGAATATAATTGGTGGATTGGCTCGAGAATGTTCGGAGTCACCTAGTGCAG	36000 fluorescence intensity (a.u.)
ATGATTAAATTAACCAAATGCTTGATACTGGTATCATATACGGAGTCACCTAGTGCAG	45500 fluorescence intensity (a.u.)
GAAGCTGATTGCGAGCTCGTTCCAAGATCTCGAATCGAAGCGGAGTCACCTAGTGCAG	9340 fluorescence intensity (a.u.)
AATAGATTAGATTAATAGTAAACCACCTCAATAGTATGTCCGGAGTCACCTAGTGCAG	41100 fluorescence intensity (a.u.)
TTAATTACTATCATTAGTGTTAAGTATATATTAACTAATGCGGAGTCACCTAGTGCAG	25900 fluorescence intensity (a.u.)
TCTTAAGCTGATGATCTGTCTATTTCTGTGACAGTACCTCCGGAGTCACCTAGTGCAG	7450 fluorescence intensity (a.u.)
CTAATTAAAACTACAAATTTAATTAATCAGTGACAAACAACGGAGTCACCTAGTGCAG	14500 fluorescence intensity (a.u.)
AACTAATTGCATAGTTTGCATAGAAATCAGAATTAGTGTTCGGAGTCACCTAGTGCAG	23900 fluorescence intensity (a.u.)
AGGACTAATCACCTCATTAGTCTATACACATTCTCCGTTTCGGAGTCACCTAGTGCAG	7680 fluorescence intensity (a.u.)

Sequence	binding signal
CCAATGACAACTAGTACTTAATTTGGAACAGAGTGAACAGCGGAGTCACCTAGTGCAG	3910 fluorescence intensity (a.u.)
TTTCAAATCATCATTTTGGAGTAACATCACTTTGGAAACCCGGAGTCACCTAGTGCAG	3180 fluorescence intensity (a.u.)
GTGGGGATTGGAGTTGGAAAAGTTTTACTTTCACAGTGATCGGAGTCACCTAGTGCAG	3640 fluorescence intensity (a.u.)
CTGTAATTTAACATACAAATATCAATCTTCTTCCAGTTTTCGGAGTCACCTAGTGCAG	12100 fluorescence intensity (a.u.)
AGACTGCTGATGATTACATTCCAAAATGACAGTATTACAGCGGAGTCACCTAGTGCAG	9390 fluorescence intensity (a.u.)
TGAAATTTAATCTAATTTCTATGATACAAAGTTAATGTTGCGGAGTCACCTAGTGCAG	14200 fluorescence intensity (a.u.)
TCTTCTGGTAATGGAGATGGAGATTACCAAAACTCAATACCGGAGTCACCTAGTGCAG	3770 fluorescence intensity (a.u.)
TATCCGTAATTCACAAAATTGAAAGGACTACTCGAACCTGCGGAGTCACCTAGTGCAG	7020 fluorescence intensity (a.u.)
TATAACAATAATGATACTGGATTGGCACACCGGAAATTCACGGAGTCACCTAGTGCAG	8740 fluorescence intensity (a.u.)
TTAATTGCAATAAACACAACGGCGTAATCGGATTATAAATCGGAGTCACCTAGTGCAG	8560 fluorescence intensity (a.u.)
CGGTCAAATTATCCAAATTAATTAAAGAGGGAACTCGGTCCGGAGTCACCTAGTGCAG	35300 fluorescence intensity (a.u.)
ATTGATTAGATCCATTGTTTTATTCTAACCATAGATTAATCGGAGTCACCTAGTGCAG	39400 fluorescence intensity (a.u.)
GAAGATGACGAGTTTATGAAGGCTGTATACGATAGGCTTGCGGAGTCACCTAGTGCAG	4210 fluorescence intensity (a.u.)
TTTAGGAATGATTGGACCTAAAGTTTAGGAGTGGTTGATTCGGAGTCACCTAGTGCAG	28000 fluorescence intensity (a.u.)
ATTACACTGTAGTCGTTTATTATGTAAAATAACGGCCTAGCGGAGTCACCTAGTGCAG	21600 fluorescence intensity (a.u.)
AGGTTGACAGAAATCGTTACAGCAATGGCGCGGTTCAAATCGGAGTCACCTAGTGCAG	22400 fluorescence intensity (a.u.)
ATAACATTATCATTATAGACATTGATATATGAGATAATAGCGGAGTCACCTAGTGCAG	6010 fluorescence intensity (a.u.)
CAGATTAATTAGTTGGTTTATTATGTCATATCTGCGAGACCGGAGTCACCTAGTGCAG	30400 fluorescence intensity (a.u.)
GTATGATTAATCCGTTCTTCCATATGTAGGTACAATATTACGGAGTCACCTAGTGCAG	5700 fluorescence intensity (a.u.)
CTTAATTATTATCATTATCTAAAACTAACCGTATTAGTTACGGAGTCACCTAGTGCAG	23000 fluorescence intensity (a.u.)
AATTGACGTAATTTCAGGTCGTATTTGTGGTGCAACAACCCGGAGTCACCTAGTGCAG	16600 fluorescence intensity (a.u.)
